Laboratory results published in the RNAGym collection of RNA variant scans (doi:10.1073/pnas.2313332121).
This sample is rich in variants without activity.

B1: TPR 5TU (parent)
chain: GGAUCUUCUCGAUCUAACAAAAAAGACAAAUCUGCCACAAAGCUUGAGAGCAUCUUCGGAUGCAGAGGCGGCAGCCUUCGGUGGCGCGAUAGCGCCAACGUUCUCAACUAUGACACGCAAAACGCGUGCUCCGUUGAAUGGAGUUUAUCAUG

Variants of: B1
Assay: polymerase ribozyme fitness, log enrichment relative to wild type (log ratio); higher = more active; in vitro selection for triplet polymerase activity
Procedure, shortened: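 Each subunit of a heterodimeric triplet polymerase ribozyme was mutagenized into a library by PCR, transcribed, and subjected to one round of in vitro selection, run in triplicate. Libraries were annealed with a biotinylated primer, the partner subunit and triplets, incubated frozen at −7 °C, and extended constructs were gel-excised, captured on streptavidin beads and recovered by RT-PCR. Input and output libraries were sequenced on Illumina, keeping genotypes with ≥10 input reads and ≥1 read per output. Fitness is log base 2 of genotype enrichment divided by wild-type enrichment, from inverse-variance-weighted replicate averages.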

Polymerase ribozyme fitness (log ratio), ≤ -4.2:
GGAUCUUCUCGAUCUAACUAAAAAGACAAAUCUGACACAAAGCUUGAGAGCAUCUUCGGAUGCAGAGGCGGCAGCCUUCGGUGGCGCGAUAGGGCCAACGUACUCAACUAUGACACGCAAAACGCGCGCUCCGUUGAAUGGAGUUUAUCAUG [A19U C35A C93G U102A U127C]
GGAUCUUCUCGAUCUAACUAAAAAGACAAAUGUGCCACAAAGCUUGAGAGCAUCUUCGGAUGCAGAGGCGGCAGCCUUCGGUGGAGCGAUAGCGCCAACGUUCUCAACUAUGACCCGCAAAACGCGUGCUCCGUUGAAUGGAGUUUAUCAUG [A19U C32G C85A A115C]
GGAUCUUCUCGAUCUAACUAAAAAGACAAAUCUGCCACAAAGAUUGAGAGCCACUUCGGAUGCAGAGGCGGUAGCCUUCGGUAGCGCGAUAGCGCCAACGUUCUCAACUAUGACACGCAAAACGCGUGCUCCGUUGAAUGGAGUUUAUCAUG [A19U C43A A52C U53A C72U G83A]
GGAUCUUCUCGAUCUAACUAAAAAGACAACUCUGCCACAAAAGUUGAGAGCAUGUUCGGAUGCAGAGGCUGCAGCCCUCGGUGGCGCGAUAGCGCGAACGUUCUCAGCUAUGACACGCAAAACGCGUGCUCCGUUGAAUGGAGUUUAUCAUG [A19U A30C G42A C43G C54G G70U U77C C96G A107G]
GGAUCUUCUCGAUCUAACUAAAAAGAGAAAUCUGCCACAAAGCUUGAGAGCAUCUUCGUAUGCAGAGGCGGCAGCCUUCGGUGGCGAGAUAGCGCCAACGUUCUCAACUAUGACACGCAAAUCGCGUGCUCCGUUGAAUGGAGUUUAUCAUG [A19U C27G G59U C87A A122U]
GGAUCUUCUCGAUCUAACUAAAAAGACGAAUCUGCCAAAAAGCUUGAGAGCAUCUUCGGAUGCAGAGGCGGCAGCCUUCGGUGGUGCGAUAGCGCCAACGUUCUCAACUAUGACACGCAAAACGUUUGCUCCGUUGAAUGGAUUUUAUCAUG [A19U A28G C38A C85U C125U G126U G143U]
GGAUCUUCUCGAUCUAACUAAAAAGACAUAACUGCCACAAAGCUUGACAGCAUCUUCGGAUGCAGAGGCGGCAGCCUUCGGUGGCGCGAUAUCGCCAACGUUCUCAACUAUGACACGCAAAACGCGUGCUCCGUUGAAUGGAGUUUAUCAUG [A19U A29U U31A G48C G92U]
GGAUCUUCUCGAUCUAACUAAAAAGACAAAUCUGCCAUAAAGCUUGAGAACAUCUUCGGAUGCAGAGGCGGCAGCCUUAGGUGGCGCGAUAGCGCCAACGUUCUCAACUAUGACACGCAAAACGCGUGCUCCGUUGAAUGGAGUUUAUCAUG [A19U C38U G50A C79A]
GGAUCUUCUCGAUCUAACUAAAAAGACAAAUCUGCCACACAGCUUGAGAGCAUCUUCGGAUGCAGAGGCGGCAGCCUUCGGUGGCCCGAUAGCGCCAACCUUCUCAACUAUGACACGCAAAACGUGUGCUCCGUUGAAUGGAGUUUAUCAUG [A19U A40C G86C G100C C125U]
GGAUCUUCUCGAUCUAACUAAAAAGACAAAUCUGCCACAAAGCUUGAGGGCAUCUUCGGAUGCAGAGGCGGCAGCCUUCGGUUGCGCGAUUGCGCCAACGUUCUCAACUAUGACACGCAAAACGCGUGCUCCGUUUAAUGGAGUUUAGCAUG [A19U A49G G83U A91U G136U U148G]
GGAUCUUCUCGAUCUAACUAAAAAGACAAAUCUGCCACAAAGUUUGAGAGCAUCUUCGGAUGCAGAGGCGGCUGCCUUUGGUGGCGCGAUAGCGCCAACGUUCUCUCCUAUGACACGCAAAACGCGUGCUCCGUUGAAUGGAGUUUAUCAUG [A19U C43U A73U C79U A106U A107C]
GGAUCUUCUCGAUCUAACUAAAAAGACAAUUCUGCCACAAAGCUUGAGAGCAUCGUCGAAUGCAGAGGCGGCAGCCUUCGGUGGCUCGAUAGCGCCAACGUUCUCAACUAUGACACGCAAAACGCGUGCUCCGUUGAAUGGAGUUUAUCUUG [A19U A30U U55G G59A G86U A150U]
GGAUCUUCUCGAUCUAACUAAAAAGACAAAUCUGCCACAAAGCUUGCGAGCAUCUUCGGAUGCAGAGGAGGCAGCCUUCGGUAGCGCGAUAGCGGCAACGUUCUCAACUAUGACUCGCAAAACGCGUGCUCCGUUGAAUGGAGGUUAUCAUG [A19U A47C C69A G83A C95G A115U U144G]
GGAUCUUCUCGAUCUAACUAAAAAGACAAAUCUGCCACAAAGCUUGAGAGCAUCUUCGGAUGCGGAGGCGGCAGCCUUCGGUGGGGCGAUAGCGCCAACGUUCUCAACUAUGACACGCAAAACGCGUGCUCCGUUGAAUGGAGUUUAUCAUG [A19U A64G C85G]
GGAUCUUCUCGAUCUAACUAAAAAGACAAAUCUGCCUUAAAGCUUGAGAGCAUCUUCGGAUGCAGAGGCGGCAGCCUUCUGUUGCGCGAUAGCGCCAACGUUCUCAACUAUGACACGCAAAACGCGUGCUCCGUUGAAUGGAGUUUAUCGUG [A19U A37U C38U G80U G83U A150G]
GGAUCUUCUCGAUCUAACUAAAAAGACAAAUAUGCCACAAAGCUUGAGAGCAUCUUCGGAUGCAGAGGCGGCAGCCUUCGGUGGCGAGAUAGCGCCAACGUUCUCAACUAUGAGACGCAAAACGCGUGCUCCGUUCAAUGGAGUUCAUCAUG [A19U C32A C87A C114G G136C U146C]
GGAUCUUCUCGAUCUAACUAAAAAGACAAAUCUGCCAUAAAGAUUGAGAGCAUCAUCGCAUGCAGAGGCGGCAGCCUUCGGUGGCGCGAUAGCGCCAACGUUCUCAACUAUGACACGCAAAACGCGUUCUCCGUUGAAUGGAGUUUAUCAUG [A19U C38U C43A U55A G59C G128U]
GGAUCUUCUCGAUCUAACUAAAAAGACAAAUCUGCCACAAAGAUUGAGAGCAUCAUCGGAUGCAGAGGCGGCAGCCUUCGGUGGAGCGAUAGCGGCAACGUUCUCAACUUUGACACGCAAAACGCGUGCUCCGUUGAAUGGAGUUCAUCAUG [A19U C43A U55A C85A C95G A110U U146C]
GGAUCUUCUCGAUCUAACUAAAAAGACAAAUCUGCCAAAAAGCUUGAGAGCAUCUUCGGAUGCAGAGGCGGCAGCCUUCGGUGGCGCGAUAGCGGCAACGUUCUCAACUAUGUCACGCAAAACGCGUGCUCCGUUGAAUGGUGUUUAUCAUG [A19U C38A C95G A113U A142U]
GGAUCUUCUCGAUCUAACUAAAAAGACAAAUGUGCCACAAAGCUUGAGAACAUCUUCGGAUACAGAGGCGGCAGCCUUCGGUGGCGCGAGUGCGCCAACGUUCUCAACUAUGACAAGCAAAACGCGUGCUCCGUUGAAUGGAGUUUAUCAUG [A19U C32G G50A G62A U90G A91U C116A]
GGAUCUUCUCGAUCUAACUAAAAAGACAAAUCUGCCAGAAAGUUUGAGAGCAUCUUCGGAUGCAGAGGCGGCAGCCUUCCGUGGAGCGAUACAGCCAACGUUCUCAACUAUGACACGCAAAACGCGUGCUCCGUUGAAUGGAGUUAAUCAUG [A19U C38G C43U G80C C85A G92C C93A U146A]
GGAUCUUCUCGAUCUAACUAAAAAGACAAAUCUGCCACAAAGUUUGAGAGCAUCUUCGGAUGCAGAGGCGGCAGCCUUCGGUGGCGCGAUAGGGCCAACGUUCUCAACUAUGACACGUAAAACGCGUGCUCCGUUGAAUGGAGUUUAUCAUG [A19U C43U C93G C118U]
GGAUCUUCUCGAUCUAACUAAAAAGACAAAUCUGCUACAAAGCUUGAGAGCAUCUUCGGAUGCAGAGGCGGCAGCCUUCGAUGGCGCGAUAGCGGCAACGUUCUCAACUAUGACACGCAAUACGCGUACUCCGUUGUAAGGAGUUUAUCAUG [A19U C36U G81A C95G A121U G128A A137U U139A]
GGAUCUUCUCGAUCUAACUAAAAAGACAAAUCUGCCACAAAGCUUGAGAGCAUCUUCGGAUGCAGCGGCGGUAGCCUUCGGUGUCGCGAUAGCGCCAACGUUCUCAACUAUGACACGCAAAACGCGUGCUCCGUUGAAUGGAGUUUAUCAUG [A19U A66C C72U G84U]
GGAUCUUCUCGAUCUAACUAAAAAGACAAAUCUGACACAAAGCUUGAGUGCAUCUUCGGAUGCAGAGGCGGCAGCCUUCGGUGGCGCGAUAGCGCCAACGUUCUCAACUAUGACACGCAAAACGCGUGCUCCGUUGAAUGGAGUUUAUCAUG [A19U C35A A49U]
GGAUCUUCUCGAUCUAACUAAAAAGACAAAUCUGCCACAAAGCUUGAGAGCAUCUUCGGAUGCAGAGGCGGCGGCCUUCGGUAGCGCGACAGCGCCAACGUUCUCAGCUAUGACACGCAAAACGCGUGCUCCGUUGAAUGGAGUUUAUCAUG [A19U A73G G83A U90C A107G]
GGAUCUUCUCGAUCUAACUAAAAAGACAAAUCUGCCACAAAGCUUGAGAGUAUAUUCGGAUGCAGAGGCGGCAGCCUUCGGUGGGGCGAUAGCGCCAACGUUCUCAACUAUGACACGCAAAACGCGUGCUCGGUUGAAUGGAGUUUAUCAUG [A19U C51U C54A C85G C132G]
GGAUCUUCUCGAUCUAACUAAAAAGACAAAUCUGCCACAGAGCUUGAGACCUUUUUCGGAUGCAGAGGCGGCAGCCUUCGGUGGCGCGAUAGCGCAAACGUUCUCAACUAUGACACGCAAAACGCGUGCUCCGUUGAAUUGAGUUUAUCAUG [A19U A40G G50C A52U C54U C96A G140U]
GGAUCUUCUCGAUCUAACUAAAAAGACGAAUCUGCCACAAAGCUUGAGAACAUCUUCGGAUGCAGAGACGGCAGCCUUCGGUGGCGCGAUAGCUCCAACGUUCUCAACUAUGACACGCAAAACGCGUGCUCCGUUGAAUGGAGUUUAUCAUG [A19U A28G G50A G68A G94U]
GGAUCUUCUCGAUCUAACUAAAAAGACAAAUAUGGCACAAAGCUUGAGAGCAUCUUCGGAUGCAGAGGCGGCAGCCUUCGGUGGCGCGAUCGUGCCAACGUUCUCAACUAUGACACGCAAAACGCGUGCUCCGUUGAAUGGAGUUUAUCAUG [A19U C32A C35G A91C C93U]
GGAUCUUCUCGAUCUAACUAAAAAGACAAAUCUGCCACAAAGCUUGAGAGCAUCUUCGGGUGCAGAGGCGGUAGCCUUCGGUGGCGCGAUAGCGCCAACGUUCUCAACUAUGACACGCAAAACGCGUGCUCCGUUGAAUGGAUUUUAUCAUG [A19U A60G C72U G143U]
GGAUCUUCUCGAUCUAACUAAAAAGACAAAUCUGCCACAAAGCUUGAGCGCAUCUUCGGAUGCAGAGGCGGCAGCCUUCGGUGGCGCGAUGGCGCCAACGUUCUCAACUAUGACACGCAAAACGCGUGCUCCGUUGAAUGGAGUUUAUCAUG [A19U A49C A91G]
GGAUCUUCUCGAUCUAACUAAAAAGACAAAUCUGCCACAAAGCUUGAGAGCAUUUUCGGAUGCAGAGUCGGCAGCCUUCGGUAGCGCGAUAGCGCCAACUUUCUCAACUAUGACAAGCAAAACGCGUGCUCCGUUGAAUGGAGUUUAUCAUG [A19U C54U G68U G83A G100U C116A]
GGAUCUUCUCGAUCUAACUAAAAAGACAAAUCUGCCACGAAGCUUGAGAGCAUCUUCGGAUGCAGAGGCGGCAGCCUUCGGUGGUGCGAUAGCGCCAACGUUCUCAACUAUGACACGCAAAACGCGUGCUCCGGUGAAUGGAGUUUAUCAUG [A19U A39G C85U U134G]
GGAUCUUCUCGAUCUAACUAAAAAGACAAAUCUGCCACAAAGCUUGAGCGCAUCUUCGGAUGCAGAGGCGGCAGCAUUCGGUGGCGCGAUAGUGCCAACGUUCUCAACUAUGACACGCAAAACGCGUGCUCCGUUGAAUGGAGUUAAUCACG [A19U A49C C76A C93U U146A U151C]
GGAUCUUCUCGAUCUAACUAAAAAGACAUUUCUGCCACAAAGCUUGAGAGCAUCUUCGGAUGCAGAGGCGGCAGCAUUAGGUGGCGCGAUAGCGCCAACGUUCUCAACUAUGACACGCAAAACGCGUGCUCCGUUGAAUGGAGUUUAUCCUG [A19U A29U A30U C76A C79A A150C]
GGAUCUUCUCGAUCUAACUAAAAAGACAAAUCUGCCACAAAGCUUGAGCGCAUCUUCGGAUGCAGAGGCGGCAGCCUUCGGUGGCGCGAUAGCGCUAGCGUUCGCAACUAUGACACGCAAAACGCGUGCUGCGUUGAAUGGAGUUUAUCAUG [A19U A49C C96U A98G U104G C131G]
GGAUCUUCUCGAUCUAACUAAAAAGACAAAUCUGCCACAAAGCUUGAGAGCAUAUUCGGAUGCAGAGGCGGCAGCCUUGGGUGGUGCGAUAGCGCCAACGUUCUCAACUAUGACACUCAAAACGCGUGCUCCGUUGAAUGGAGUUUAUCAUG [A19U C54A C79G C85U G117U]
